We go through 50 molecules from PMC6919601, “Identification of Plasmodium dipeptidyl aminopeptidase allosteric inhibitors by high throughput screening” (PLoS ONE, 2019).

In all, about 110,000 compounds went through this assay and about 230 (0.21%) showed an effect of 50% or more. The list shows a part of the results.
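Further: 30 min substrate incubation versus DMSO and 10 µM JCP410 controls.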

In the experiment the target is DPAP1 (Plasmodium falciparum, UniProt Q8IIJ9). Kind of experiment: primary screen, percent inhibition; read by cleavage of a fluorogenic dipeptide substrate; higher = more effect of the substance. On the set-up: species or system P. falciparum D10 trophozoite lysates; single well.
DPAP1, sequence (Q8IIJ9 whole entry, looked up): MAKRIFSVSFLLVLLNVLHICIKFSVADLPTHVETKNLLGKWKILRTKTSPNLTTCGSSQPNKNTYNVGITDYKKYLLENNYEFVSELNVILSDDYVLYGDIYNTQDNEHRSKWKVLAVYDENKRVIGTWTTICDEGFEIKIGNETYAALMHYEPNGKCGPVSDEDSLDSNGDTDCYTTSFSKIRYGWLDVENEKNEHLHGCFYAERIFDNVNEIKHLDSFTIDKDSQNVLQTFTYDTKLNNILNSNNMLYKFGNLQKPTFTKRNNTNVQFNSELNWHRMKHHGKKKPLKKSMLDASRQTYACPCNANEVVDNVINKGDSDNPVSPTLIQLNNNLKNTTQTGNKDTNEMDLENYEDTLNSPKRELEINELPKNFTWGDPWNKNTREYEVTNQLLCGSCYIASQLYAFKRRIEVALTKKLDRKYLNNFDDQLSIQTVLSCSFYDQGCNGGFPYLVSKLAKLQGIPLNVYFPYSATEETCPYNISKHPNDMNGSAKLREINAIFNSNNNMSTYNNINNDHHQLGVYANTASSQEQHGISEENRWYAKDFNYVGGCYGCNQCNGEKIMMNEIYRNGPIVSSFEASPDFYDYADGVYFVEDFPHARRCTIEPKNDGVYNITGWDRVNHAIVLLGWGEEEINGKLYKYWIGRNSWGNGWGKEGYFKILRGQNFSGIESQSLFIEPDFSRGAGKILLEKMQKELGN
Take `N#C/C(=C/c1c[nH]c2ccccc12)C(=O)Nc1ccc(Cl)cc1`: the “% Inhibition @ 10 uM” value is given as -1.32%.

For the molecule `Cc1sc(NC(=O)C2C3C=CC(C3)C2C(=O)O)nc1-c1ccccc1` (centres unmarked), the “% Inhibition @ 10 uM” value is -9.05%. With `CCS(=O)(=O)C1=NN2C(=N)/C(=C\c3ccc(OC(C)c4ccccc4)c(OC)c3)C(=O)N=C2S1` (centres unmarked) the figure was -1.54%; with `O=C(O)COc1ccc(Cl)cc1C1C2=C(CCCC2=O)OC2=C1C(=O)CCC2`, -13.4%; with `Cc1ccc2c(c1)OC(=O)CC2c1ccccc1` (centres unmarked), -5.26%. With `Cc1ccc(OCC(=O)Nc2cnc(O)nc2O)cc1` the figure was 19.4%. For `COCCNC(=O)c1ccc(CS(=O)(=O)Cc2ccc(Cl)cc2)o1`, the “% Inhibition @ 10 uM” value turned out to be 2.05%. Consider `CN(C)c1ccc(NC(=O)COc2ccc(Br)cc2)cc1`, for which the “% Inhibition @ 10 uM” value came out at 0.746%.

For the molecule `COc1ccc(-n2c(C)cc(C=C3C(=O)c4ccccc4C3=O)c2C)cc1`, the “% Inhibition @ 10 uM” value was 5.37%. As for `COc1ccc(/C=C(/C#N)C(=O)Nc2ccc(Cl)cc2)c(C)c1`, the “% Inhibition @ 10 uM” value worked out at 2.05%.

For `Cc1cc(C)nc(SCCS(=O)c2ccc(C(C)(C)C)cc2)n1` (centres unmarked), the “% Inhibition @ 10 uM” value is on record as 2.95%. As for `CCOC(=O)c1c(C)sc2c3c([nH]c12)CCCC3`, the “% Inhibition @ 10 uM” value is given as 9.19%. On to `Cc1ccc(S(=O)(=O)NC(C)C)cc1[N+](=O)[O-]`, for which the “% Inhibition @ 10 uM” value was -4.35%. For the molecule `CN1C(C)(C)CC(NC(=O)c2ccc(-n3cnnn3)cc2)CC1(C)C`, the “% Inhibition @ 10 uM” value is given as 1.98%. Regarding `O=S(=O)(c1ccc(C2=CSC3=NCCN23)cc1)N1CCOCC1`, the “% Inhibition @ 10 uM” value is given as 1.72%. Take `Cc1ccc(CCNC(=O)Cn2nc(-c3ccccc3)ccc2=O)cc1`: the “% Inhibition @ 10 uM” value is given as -1.21%.

As to `NC(=O)C1CCN(C(=O)c2cccc(C#Cc3ccccc3)c2)CC1`, the “% Inhibition @ 10 uM” value turned out to be 2.05%. Take `CCOC(=O)C1=C(C)NC(=O)CC1c1ccccc1` (centres unmarked): the “% Inhibition @ 10 uM” value is reported as -2.2%.

Turning to `Cc1ccccc1-c1noc(-c2nnn(-c3ccccc3)c2N)n1`, the “% Inhibition @ 10 uM” value is listed as 3.73%.

With `COc1ccccc1N1CCN(C(=O)c2ccc(-c3ccccc3)cc2)CC1`, the “% Inhibition @ 10 uM” value was found to be 0.847%. With `CC1=C(C(=O)Nc2ccc(F)cc2F)C(c2cccc(Cl)c2)C2=C(O)CCCC2=N1` (centres unmarked) the figure was -0.99%.

As for `Cc1ccc(N2C(=O)CC(N3CCN(c4ccccn4)CC3)C2=O)cc1` (centres unmarked), the “% Inhibition @ 10 uM” value worked out at 4.27%. As to `Oc1ccc(Br)cc1-c1ccnn1-c1ccccc1`, the “% Inhibition @ 10 uM” value was found to be 0.196%. Turning to `CN1CCN(Cc2coc3c(Cl)cc(Cl)cc3c2=O)CC1`, the “% Inhibition @ 10 uM” value is -6.24%.

Turning to `CC(C)CCn1c(=O)c2cccnc2n(Cc2ccc(Cl)cc2)c1=O`, the “% Inhibition @ 10 uM” value is listed as 3.13%. In the case of `COc1ccc(-c2cc(C(=O)O)c3c(C)[nH]nc3n2)cc1`, the “% Inhibition @ 10 uM” value was determined as 0.0654%. Take `O=C(Nc1ccc(-c2cn3cccnc3n2)cc1)c1ccc(F)cc1`: the “% Inhibition @ 10 uM” value is listed as -1.44%.

`Cc1cccc(N2CCN(C(=O)CCC(=O)O)CC2)c1C`: the “% Inhibition @ 10 uM” value is listed as -3.24%. Turning to `CCOc1ccc(N2C(=O)CC(N3CCN(c4ccc(F)cc4)CC3)C2=O)cc1` (centres unmarked), the “% Inhibition @ 10 uM” value was -6.67%. In the case of `CCOc1ccc(NC(=O)COc2ccc(C)cc2)cc1`, the “% Inhibition @ 10 uM” value is given as -2.03%.

With `COc1ccc(C2C3=C(O)CC(c4ccccc4)CC3=NC(C)=C2C(=O)Nc2ccccn2)c(OC)c1` (centres unmarked), the “% Inhibition @ 10 uM” value was 0.851%. In the case of `COc1ccccc1NCC(O)CN` (centres unmarked), the “% Inhibition @ 10 uM” value stood at 24.8%. In the case of `Cn1c(=O)c2sccc2n2c(CCC(=O)NC3CCN(Cc4ccccc4)CC3)nnc12`, the “% Inhibition @ 10 uM” value is -6.94%. As to `Cc1ccc(-n2c3c(c(O)c(-c4ccccc4)c2=O)C(=O)CC(C)(C)C3)cc1`, the “% Inhibition @ 10 uM” value was found to be 4%. For the molecule `CCOC(=O)c1c(C)nc2n(CCN3CCOCC3)c3ccccc3n12`, the “% Inhibition @ 10 uM” value is 0.486%. As to `COc1cc(C(=O)NCc2nnc(SCc3cccnc3)o2)cc(OC)c1OC`, the “% Inhibition @ 10 uM” value is recorded as -5.27%. With `O=C(Nc1c(C(=O)O)oc2ccc(Br)cc12)c1ccccc1` the figure was 2.25%. Consider `CCCCNC(=O)c1ccc(CNS(=O)(=O)c2ccc(Br)cc2)cc1`, for which the “% Inhibition @ 10 uM” value is listed as 0.208%.

On to `Cc1ccc(C)c(Cn2nc3nc(C)nc(N4CCC(CNC(=O)OC(C)(C)C)CC4)c3n2)c1`, for which the “% Inhibition @ 10 uM” value is listed as -3.08%. `OCC1CCCCN1C1CN2CCC1CC2` (centres unmarked): the “% Inhibition @ 10 uM” value is recorded as 1.57%. As to `COc1ccccc1CN1CCN(Cc2ccc(OC)c(OC)c2OC)CC1`, the “% Inhibition @ 10 uM” value is recorded as -4.21%. Turning to `CCc1c(C)c2cc3c(C)c(C)oc3c(C)c2oc1=O`, the “% Inhibition @ 10 uM” value is -1.15%. With `COC(=O)CNC(=O)COc1ccc(Cl)cc1Cl`, the “% Inhibition @ 10 uM” value is on record as -3.52%. In the case of `O=C(O)c1ccc(NC2=CC(c3ccccc3)N(c3ccc(C(=O)O)cc3)C2=O)cc1` (centres unmarked), the “% Inhibition @ 10 uM” value worked out at 6.84%. The result for `COc1ccc(CC(=O)Nc2cc3c(cc2C(C)=O)OCO3)cc1OC` reads -1.98%.

For the molecule `CC1=C(C(=O)Nc2ccccc2C(F)(F)F)C(c2ccc3c(c2)OCO3)C2=C(O)CC(C)(C)CC2=N1` (centres unmarked), the “% Inhibition @ 10 uM” value is recorded as 3.62%.

For the molecule `CC1CCN(C(=O)CN(c2ccccc2Cl)S(C)(=O)=O)CC1`, the “% Inhibition @ 10 uM” value was determined as 3.81%.

Take `O=Cc1c(Cl)[nH]c2ccccc12`: the “% Inhibition @ 10 uM” value is reported as 1.08%. With `CC(C)CC(=O)Nc1ccc2oc(-c3ccc(Cl)cc3)nc2c1`, the “% Inhibition @ 10 uM” value was -1.66%.

As for `Cn1ncc2c(N3CCC(C(N)=O)CC3)ncnc21`, the “% Inhibition @ 10 uM” value worked out at 0.426%.
